Measured values reported in the supplement of paper PMC8728848.
The list shows a part of the results.

What was measured:
Test in all cases: glycan array binding signal (z-score within array); higher = stronger binding
Conditions in all cases: glycan notation: IUPAC condensed, linker removed
Gal6S(b1-4)Glc6S = biological target: Gal6S(b1-4)Glc6S
Outline: (§1)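 Negative Z-scores can be read as non-binding. The Z-score is calculated within each array and then averaged across arrays of one protein sequence at different concentrations or buffers and across linkers. Arrays, 3228 in all, were curated from the Consortium for Functional Glycomics database and kept only where the protein sequence was available.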

Gal6S(b1-4)GlcNAc = biological target: Gal6S(b1-4)GlcNAc
Outline: as §1

Gal6S(b1-4)GlcNAc6S = biological target: Gal6S(b1-4)GlcNAc6S
Outline: as §1

GalNAc(a1-3)Gal = biological target: GalNAc(a1-3)Gal
Outline: as §1

GalNAc(a1-3)GalNAc = biological target: GalNAc(a1-3)GalNAc
Outline: as §1

[1] = biological target: GalNAc(a1-3)GalNAc(b1-3)Gal(a1-4)Gal(b1-4)Glc
Outline: as §1

[2] = biological target: GalNAc(a1-3)GalNAc(b1-3)Gal(a1-4)Gal(b1-4)GlcNAc
Outline: as §1

GalNAc(b1-3)Gal = biological target: GalNAc(b1-3)Gal
Outline: as §1

[3] = biological target: GalNAc(b1-3)Gal(a1-4)Gal(b1-4)GlcNAc
Outline: as §1

[4] = biological target: GalNAc(b1-3)Gal(a1-4)Gal(b1-4)GlcNAc(b1-3)Gal(b1-4)Glc
Outline: as §1

[5] = biological target: GalNAc(b1-3)Gal(a1-6)Gal(b1-4)Glc
Outline: as §1

GalNAc(b1-3)GalNAc = biological target: GalNAc(b1-3)GalNAc
Outline: as §1

GalNAc(b1-3)GlcNAc = biological target: GalNAc(b1-3)GlcNAc
Outline: as §1

GalNAc(b1-4)Gal(b1-4)Glc = biological target: GalNAc(b1-4)Gal(b1-4)Glc
Outline: as §1

GalNAc(b1-4)GlcNAc = biological target: GalNAc(b1-4)GlcNAc
Outline: as §1

[6] = biological target: GalNAc(b1-4)GlcNAc(b1-2)Man
Outline: as §1

[7] = biological target: GalNAc(b1-4)GlcNAc(b1-2)Man(a1-3)[GalNAc(b1-4)GlcNAc(b1-2)Man(a1-6)]Man(b1-4)GlcNAc(b1-4)GlcNAc
Outline: as §1

[8] = biological target: GalNAc(b1-4)GlcNAc(b1-3)GalNAc(b1-4)GlcNAc
Outline: as §1

GalNAc(b1-4)GlcNAc6S = biological target: GalNAc(b1-4)GlcNAc6S
Outline: as §1

GalNAc(b1-6)GalNAc = biological target: GalNAc(b1-6)GalNAc
Outline: as §1

GalNAc3S(b1-4)GlcNAc = biological target: GalNAc3S(b1-4)GlcNAc
Outline: as §1

GalNAc3S(b1-4)GlcNAc3S = biological target: GalNAc3S(b1-4)GlcNAc3S
Outline: as §1

[9] = biological target: GalNAc3S(b1-4)[Fuc(a1-3)]GlcNAc
Outline: as §1

GalNAc4S6S(b1-4)GlcNAc = biological target: GalNAc4S6S(b1-4)GlcNAc
Outline: as §1

GalNAc6S(b1-4)GlcNAc = biological target: GalNAc6S(b1-4)GlcNAc
Outline: as §1

Glc(a1-4)Glc = biological target: Glc(a1-4)Glc
Outline: as §1

[10] = biological target: Glc(a1-4)Glc(a1-4)Glc(a1-4)Glc
Outline: as §1

Glc(a1-6)Glc(a1-6)Glc = biological target: Glc(a1-6)Glc(a1-6)Glc
Outline: as §1

[11] = biological target: Glc(a1-6)Glc(a1-6)Glc(a1-6)Glc
Outline: as §1

Glc(b1-4)Glc = biological target: Glc(b1-4)Glc
Outline: as §1

Glc(b1-6)Glc = biological target: Glc(b1-6)Glc
Outline: as §1

GlcA(b1-3)Gal = biological target: GlcA(b1-3)Gal
Outline: as §1

GlcA(b1-3)GlcNAc = biological target: GlcA(b1-3)GlcNAc
Outline: as §1

GlcA(b1-6)Gal = biological target: GlcA(b1-6)Gal
Outline: as §1

[12] = biological target: GlcA3S(b1-3)Gal(b1-4)GlcNAc(b1-2)Man
Outline: as §1

[13] = biological target: GlcA3S(b1-3)Gal(b1-4)GlcNAc(b1-3)Gal(b1-4)Glc
Outline: as §1

[14] = biological target: GlcNAc(a1-3)Gal(b1-4)GlcNAc
Outline: as §1

[15] = biological target: GlcNAc(a1-4)Gal(b1-3)GlcNAc
Outline: as §1

[16] = biological target: GlcNAc(a1-4)Gal(b1-4)GalNAc
Outline: as §1

[17] = biological target: GlcNAc(a1-4)Gal(b1-4)GlcNAc
Outline: as §1

[18] = biological target: GlcNAc(a1-4)Gal(b1-4)GlcNAc(b1-3)Gal(b1-4)Glc
Outline: as §1

[19] = biological target: GlcNAc(a1-4)Gal(b1-4)GlcNAc(b1-3)Gal(b1-4)GlcNAc
Outline: as §1

[20] = biological target: GlcNAc(a1-4)Gal(b1-4)GlcNAc(b1-3)Gal(b1-4)GlcNAc(b1-3)Gal(b1-4)GlcNAc
Outline: as §1

[21] = biological target: GlcNAc(a1-4)Gal(b1-4)GlcNAc(b1-3)Gal(b1-4)[Fuc(a1-3)]GlcNAc(b1-3)Gal(b1-4)[Fuc(a1-3)]GlcNAc
Outline: as §1

[22] = biological target: GlcNAc(a1-6)Gal(b1-4)GlcNAc
Outline: as §1

B1: LecB PA7 (Pseudomonas aeruginosa) (protein)
chain: MATQGVFTLPANTRFGVTAFANSSATQTVKVLVNNETAATFTGQSTNNAVIGSQVLNSGGGGKVQIQVSVNGRSSDLVSAQVILANELNVALVGSEDSTDNDYNDAVVVINWPLG
glycan array binding signal (z-score) (Gal6S(b1-4)Glc6S): -0.48
glycan array binding signal (z-score) (Gal6S(b1-4)GlcNAc): -0.501
glycan array binding signal (z-score) (Gal6S(b1-4)GlcNAc6S): -0.508
glycan array binding signal (z-score) (GalNAc(a1-3)Gal): -0.483
glycan array binding signal (z-score) (GalNAc(a1-3)GalNAc): -0.478
glycan array binding signal (z-score) [1]: -0.487
glycan array binding signal (z-score) [2]: -0.392
glycan array binding signal (z-score) (GalNAc(b1-3)Gal): -0.493
glycan array binding signal (z-score) [3]: -0.503
glycan array binding signal (z-score) [4]: -0.515
glycan array binding signal (z-score) [5]: -0.48
glycan array binding signal (z-score) (GalNAc(b1-3)GalNAc): -0.37
glycan array binding signal (z-score) (GalNAc(b1-3)GlcNAc): -0.498
glycan array binding signal (z-score) (GalNAc(b1-4)Gal(b1-4)Glc): -0.462
glycan array binding signal (z-score) (GalNAc(b1-4)GlcNAc): -0.511
glycan array binding signal (z-score) [6]: -0.496
glycan array binding signal (z-score) [7]: -0.488
glycan array binding signal (z-score) [8]: -0.263
glycan array binding signal (z-score) (GalNAc(b1-4)GlcNAc6S): -0.515
glycan array binding signal (z-score) (GalNAc(b1-6)GalNAc): -0.506
glycan array binding signal (z-score) (GalNAc3S(b1-4)GlcNAc): -0.508
glycan array binding signal (z-score) (GalNAc3S(b1-4)GlcNAc3S): -0.517
glycan array binding signal (z-score) [9]: 0.903
glycan array binding signal (z-score) (GalNAc4S6S(b1-4)GlcNAc): -0.512
glycan array binding signal (z-score) (GalNAc6S(b1-4)GlcNAc): -0.519
glycan array binding signal (z-score) (Glc(a1-4)Glc): -0.499
glycan array binding signal (z-score) [10]: -0.495
glycan array binding signal (z-score) (Glc(a1-6)Glc(a1-6)Glc): -0.456
glycan array binding signal (z-score) [11]: -0.482
glycan array binding signal (z-score) (Glc(b1-4)Glc): -0.472
glycan array binding signal (z-score) (Glc(b1-6)Glc): -0.475
glycan array binding signal (z-score) (GlcA(b1-3)Gal): -0.499
glycan array binding signal (z-score) (GlcA(b1-3)GlcNAc): -0.499
glycan array binding signal (z-score) (GlcA(b1-6)Gal): -0.481
glycan array binding signal (z-score) [12]: -0.508
glycan array binding signal (z-score) [13]: -0.504
glycan array binding signal (z-score) [14]: -0.505
glycan array binding signal (z-score) [15]: -0.514
glycan array binding signal (z-score) [16]: -0.414
glycan array binding signal (z-score) [17]: -0.509
glycan array binding signal (z-score) [18]: -0.505
glycan array binding signal (z-score) [19]: -0.483
glycan array binding signal (z-score) [20]: -0.495
glycan array binding signal (z-score) [21]: 1.77
glycan array binding signal (z-score) [22]: -0.502
